Assay results reported in PubChem BioAssay AID602340 (Broad Institute, 2012).
Among all 330,000 compounds or so, about 2,600 (0.79%) were called active. Inconclusive means that the source gave no clear call. Such entries were picked first, then a sample of the others.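 The calls were made as follows: active = mean ATP rescue above about 67%, or every replicate alone reaching that limit (limit read from the data, passing the limit was not always enough); inconclusive = no clear call, values can overlap the other calls; inactive = mean under the limit and some replicate under it.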

Experiment: protection of differentiated C2C12 cells from simvastatin – single point, plate reader, primary screen (AID 602340);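 also: myotubes were challenged with 10 µM simvastatin during compound exposure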
Conditions: C2C12 myotubes + simvastatin, ATP luminescence, 48 h, at 7.49 µM, hits give high values
For `CC(NC(=O)Oc1ccccc1)C(c1cccs1)N1CCOCC1` (stereo unspecified), the rescue of ATP level was inconclusive: 65.1%. In the case of `COC(=O)[C@@H]1[C@@H](CO)[C@@H]2Cn3c(ccc(/C=C/c4ccccc4)c3=O)[C@H]1N2C(=O)C1CCC1`, the rescue of ATP level is reported as inactive: -7.29%. For `CN1CCC(N2CC3CC(C2)c2cccc(=O)n2C3)CC1` (stereo unspecified), the rescue of ATP level was inconclusive: 77.3%. With `Clc1cccc(CNCCc2c[nH]c3ccccc23)c1` the rescue of ATP level was inconclusive: 9.21%. With `Clc1cccc(CNCCc2ccc3c(c2)OCO3)c1` the rescue of ATP level was inconclusive: 5.46%. In the case of `O=c1c2ccccc2nc(-c2ccco2)n1-c1ccccn1`, the rescue of ATP level is reported as active: 120%. With `FC(F)(F)/C(=N\P(=S)(N1CCOCC1)N1CCOCC1)N1CCOCC1` the rescue of ATP level was inconclusive: 96.9%. For `COc1cc(/C=C/c2nc3ccccc3c(=O)n2-c2ccccc2O)ccc1O`, the rescue of ATP level was inconclusive: 89.5%. With `Cc1cccn2c(=O)c3c(nc12)N1CCc2ccccc2C1C1(C3)C(=O)NC(=O)N(C)C1=O` (stereo unspecified) the rescue of ATP level was inconclusive: 81%. In the case of `CCOC(=O)C(O)(c1ccc(NC(=O)c2ccc(Cl)c(Cl)c2)cc1)C(F)(F)F` (stereo unspecified), the rescue of ATP level is reported as inactive: -32.7%. For `COC(=O)c1ccccc1N=Cc1c(O)[nH]c(=O)[nH]c1=O`, the rescue of ATP level was inconclusive: 3.12%. With `CCc1c(C)nc(N)nc1N1N=C1SCC#N` the rescue of ATP level was inconclusive: 79.3%. In the case of `OC(CN1CC=C(c2ccccc2)CC1)c1ccccc1` (stereo unspecified), the rescue of ATP level is reported as active: 84.1%. With `C#CCNc1ccncc1S(=O)(=O)NC(=O)NC(C)C` the rescue of ATP level was active: 128%. For `COC(=O)C1=C(c2ccc(F)cc2OCc2ccccc2)C[C@@H]2CC[C@H]1N2C(=O)NCc1ccc(N(C)C)cc1`, the rescue of ATP level was inactive: -15%. For `COC(=O)[C@H]1[C@H](CO)[C@H]2Cn3c(ccc(-c4ccccc4F)c3=O)[C@@H]1N2Cc1ccncc1`, the rescue of ATP level was inactive: -7.66%. For `O=C1C2CCCN2C(c2cccnc2)N1c1nccs1` (stereo unspecified), the rescue of ATP level was active: 155%. For `O=C(NC1(C(F)(F)F)Oc2ccccc2O1)N1CCC2(CC1)OCCO2`, the rescue of ATP level was active: 101%. In the case of `COC(=O)[C@H]1[C@H](CO)[C@H]2Cn3c(ccc(-c4cccnc4)c3=O)[C@@H]1N2S(=O)(=O)c1ccccc1C`, the rescue of ATP level is reported as inactive: 7.73% [scaled: DMSO 0, geranylgeraniol control 100]. In the case of `Cc1cc(=O)oc2cc(OCC(=O)N3CCN(Cc4ccccc4)CC3)ccc12`, the rescue of ATP level is reported as inactive: 7.3%. With `C[C@H]1CCC[C@@H](O)CCC/C=C/c2cc(O)cc(O)c2C(=O)O1` the rescue of ATP level was inconclusive: 67.3%. For `Cc1oc(C(=O)Nc2ccc(O)cc2)cc1COc1ccccc1`, the rescue of ATP level was inconclusive: 66.8%. For `CN1CCc2nc3sc(C#N)c(N)c3c(-c3cccs3)c2C1`, the rescue of ATP level was inconclusive: 66.9%. For `O=C1NC(=S)NC(=O)C1c1ccccc1`, the rescue of ATP level was inconclusive: 66.8%. With `O=C(COc1ccc(Cl)cc1)N1CCN(Cc2ccccc2)CC1` the rescue of ATP level was inactive: 23.5%. For `CC(=O)O[C@H]1[C@H]2O[C@]23[C@@H]2CC[C@]4(O)C[C@@H](O)CC[C@]4(C)C2CC[C@]3(C)[C@H]1c1ccc(=O)oc1` (stereo partly specified), the rescue of ATP level was inactive: 10.1%.
